# According to paper PMC4336329 (PLoS ONE, 2015):
# Among all 310,000 compounds or so, about 14,000 (4.5%) showed an effect of 50% or more. The effect is printed as a negative number. The list shows a part of the results.
# Target: human ether-à-go-go-related gene (hERG) potassium channel (human, UniProt Q12809)
# Assay: primary screen, population patch clamp on CHO cells stably expressing hERG
# 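Further: peak tail current of the secondary pulse compared with the same well before compound.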
# Sequence of human ether-à-go-go-related gene (hERG) potassium channel (Q12809 whole entry, looked up): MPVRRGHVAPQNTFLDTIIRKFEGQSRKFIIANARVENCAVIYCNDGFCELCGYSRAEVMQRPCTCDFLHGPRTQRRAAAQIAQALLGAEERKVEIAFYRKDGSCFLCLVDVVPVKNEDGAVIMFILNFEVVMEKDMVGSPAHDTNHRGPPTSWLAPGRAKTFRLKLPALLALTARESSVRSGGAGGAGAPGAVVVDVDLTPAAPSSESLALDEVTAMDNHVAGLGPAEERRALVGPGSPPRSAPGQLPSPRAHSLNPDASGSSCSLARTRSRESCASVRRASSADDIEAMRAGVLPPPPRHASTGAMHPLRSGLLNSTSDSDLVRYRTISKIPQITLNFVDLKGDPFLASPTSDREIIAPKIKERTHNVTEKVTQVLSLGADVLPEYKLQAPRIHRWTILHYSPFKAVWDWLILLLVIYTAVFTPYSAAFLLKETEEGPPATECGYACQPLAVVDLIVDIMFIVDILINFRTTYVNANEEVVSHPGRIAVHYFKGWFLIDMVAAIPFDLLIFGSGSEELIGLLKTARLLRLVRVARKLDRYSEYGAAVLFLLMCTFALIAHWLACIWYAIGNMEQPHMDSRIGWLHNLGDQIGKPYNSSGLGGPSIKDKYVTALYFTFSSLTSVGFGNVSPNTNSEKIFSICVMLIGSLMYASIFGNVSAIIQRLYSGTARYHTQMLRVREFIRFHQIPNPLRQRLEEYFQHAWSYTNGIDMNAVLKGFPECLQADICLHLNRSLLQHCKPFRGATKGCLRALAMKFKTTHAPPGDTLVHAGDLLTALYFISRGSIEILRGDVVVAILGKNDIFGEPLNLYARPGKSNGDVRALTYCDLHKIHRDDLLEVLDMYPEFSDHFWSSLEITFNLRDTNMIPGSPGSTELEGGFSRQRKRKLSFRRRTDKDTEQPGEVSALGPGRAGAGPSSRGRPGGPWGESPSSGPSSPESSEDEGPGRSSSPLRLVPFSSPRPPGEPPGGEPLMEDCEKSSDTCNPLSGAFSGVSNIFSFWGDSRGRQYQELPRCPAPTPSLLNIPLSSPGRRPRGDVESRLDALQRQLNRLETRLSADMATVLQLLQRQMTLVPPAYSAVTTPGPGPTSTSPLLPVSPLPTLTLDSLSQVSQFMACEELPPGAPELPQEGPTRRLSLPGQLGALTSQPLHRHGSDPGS
row,SMILES,"hERG current change (%, negative = inhibition) at 10uM"
1,CCN1CCN(CC(=O)Nc2nc3ccc(C)cc3s2)CC1,-34.5%
2,O=C(Nc1cc(S(=O)(=O)N2CCOCC2)ccc1OCC(F)(F)F)c1ccc(N2CCCC2=O)cc1,-3.15%
3,Cc1cccn2c(=O)c(C=O)c(Cl)nc12,13.2%
4,Cc1ccc(-c2cc(C(F)(F)F)n3nc(C(=O)Nc4ccon4)cc3n2)cc1C,-6.47%
5,O=[N+]([O-])c1cc(F)c(N2CCCC2)cc1N1CCNCC1,-8.28%
6,CCOC(=O)c1cn(Cc2ccc(C)cc2)c2cc(F)ccc2c1=O,-10.9%
7,Cc1ccccc1-c1nc(CS(=O)(=O)CC(=O)NCCCN2CCCC2=O)c(C)o1,3.49%
8,O=C(NCCCn1ccnc1)c1cn(-c2ccccc2)nc1-c1ccccc1,-47.1%
9,CCN(CC(=O)NC(C)(C)C)C(=O)C(c1ccccc1)c1ccccc1,23.5%
10,Cc1ccccc1/C(N)=N/OC(=O)c1ccc(F)cc1,16.4%
11,O=C(Nc1nccs1)C(c1ccccc1)N1CCCCC1 (stereo not shown),-4.97%
12,O=C(Nc1ccc(N2CCCCCC2)cc1)c1ccc[nH]1,-15.6%
13,O=C(Nc1ccccc1C(=O)N1CCN(Cc2ccccc2)CC1)c1ccccn1,-26.1%
14,O=C(COc1ccccc1[N+](=O)[O-])N1CCN(c2ccccn2)CC1,-7.33%
15,CCCN(Cc1ccccc1)C(=S)NC(=O)c1ccccc1[N+](=O)[O-],18.6%
16,O=C(Nc1cc2c(oc1=O)CCCC2=O)c1ccc(Cl)cc1,-11.8%
17,CC(C)(C)OC(=O)N1CC=C2C(C#N)=C(N)C(C#N)(C#N)C(c3cccs3)C2C1 (stereo not shown),12.4%
18,Cc1ccc(S(=O)(=O)N2CCOCC2)cc1C(=O)Nc1c(C)n(C)n(-c2ccccc2)c1=O,9.5%
19,Cc1cc2nc3c(nc2cc1C)C1(C(=O)O)CCC3(C)C1(C)C (stereo not shown),3.15%
20,N#C/C(=C\C=C\c1ccccc1)C(=O)N1CCCC1,16.6%
21,C=CCNC(C(=O)Nc1cccc(OC)c1)c1ccccc1 (stereo not shown),9.29%
22,CC(C)(C)N1[C@@H](CC(=O)O)c2cc(C(F)(F)F)ccc2S1(=O)=O,11.2%

row,SMILES,"hERG current change (%, negative = inhibition) at 10uM"
1,OCCCNc1ncnc2sc3c(c12)CCN(Cc1ccccc1)C3,-37.9%
2,CCc1ccc(C(C(=O)NCCOC)N(C(=O)Cn2nnc3ccccc32)c2cccnc2)cc1 (stereo not shown),-12.2%
3,CCC(=O)N1CCN(c2ccccc2NC(=O)COc2ccccc2Cl)CC1,-42.2%
4,CC1CCCN(CCOCCOc2ccccc2-c2ccccc2)C1.O=C(O)C(=O)O (stereo not shown),-72.9%
5,N#Cc1ccccc1NC(=O)c1ccc2c(c1)OCO2,-4.97%
6,CCCCn1c(-c2c(Cl)c(C)nn2C)n[nH]c1=S,5.7%
7,O=C(O)CCCn1cc(NC(=O)COc2ccc([N+](=O)[O-])cc2)cn1,2.66%
8,Cc1ccc(/C=C/c2ccc(=O)n(Cc3ccc(Cl)cc3Cl)n2)cc1,-2.81%
9,Cc1nn(C)c(C)c1S(=O)(=O)N(CC(=O)N1CCc2ccccc2C1)c1ccc(C(C)C)cc1,-34.4%
10,N=c1c2c3c(sc2ncn1CCCN1CCOCC1)CCCCC3,-51.2%
11,Cc1nn(-c2ccccc2)c(C)c1-c1nnc(-c2c(C)nn(-c3ccccc3)c2C)o1,9.56%
12,N#CC(C(=O)CCN1C(=O)C2CC=CCC2C1=O)c1nc2ccccc2[nH]1 (stereo not shown),7.24%
13,Cc1ccc(C(=O)O/N=C2\CCSc3ccc(C)cc32)cc1,-0.571%
14,CCN(CC)c1ccc(/C=C(\C#N)c2ccccn2)cc1,-5.69%
15,Cn1c(NC(=O)CCC2CCCCC2)cc(=O)n(C)c1=O,-11.4%
16,CC(CN1CCCC1)OC(=O)c1cccc(F)c1.Cl (stereo not shown),7.11%
17,CNS(=O)(=O)c1cnccc1N1CCN(c2cccc(Cl)c2)CC1,-27.5%
18,CSc1ccccc1NC(=O)c1ccc(N2CCCC2=O)cc1,-16.3%
19,CN1C(=O)Cc2cc(S(=O)(=O)N3CCN(c4cccc(C(F)(F)F)c4)CC3)ccc21,13.7%
20,COc1ccc(N(CC(=O)NCc2ccccc2C)S(=O)(=O)c2ccccc2[N+](=O)[O-])c(OC)c1,-6.94%
21,CN1CCN(c2nc3ccccn3c(=O)c2/C=C(\C#N)S(=O)(=O)c2ccccc2)CC1,-24.9%
22,COc1cccc(NC(=O)C2CC(=O)N(Cc3ccco3)C2)c1 (stereo not shown),0.0564%

row,SMILES,"hERG current change (%, negative = inhibition) at 10uM"
1,Cc1nc2ccccc2c(=O)n1/N=C/c1ccc(N(C)C)cc1,5.95%
2,CC1=C[C@H](C)[C@H](c2c(F)cccc2Cl)CC1=O,6.22%
3,CC1SCC(=NOCc2c(Cl)cccc2Cl)CS1 (stereo not shown),17.3%
4,COc1ccc([N+](=O)[O-])cc1NC(=O)c1ccccc1SC,-16.6%
5,O=C(CN(Cc1ccc(Cl)cc1)C(=O)c1csnn1)NCc1ccccc1,-56.7%
6,Nc1nc(F)cc(NCc2ccccc2)n1,-1.04%
7,Cc1cc2nc(-c3ccc(SCC(=O)Nc4ccc(S(=O)(=O)NC5CC5)cc4)nc3)[nH]c2cc1C,6.68%
8,COc1cc2c(cc1NC(C)=O)CCCC2,14.2%
9,COc1ccc(C(=O)NCCc2nnc(SCC(=O)Nc3ccccc3F)n2C)cc1,-7.59%
10,COc1ccc(C(=O)Nn2c(C)ccc2C)cc1OC,1.55%
11,O=C(Nc1ccc2nc3n(c(=O)c2c1)CCCC3)c1cncc(Br)c1,-43.2%
12,NC(=O)c1nsc(C(=O)N(c2ccc(F)cc2)C(C(=O)NCC2CCCO2)c2c[nH]c3ccccc23)c1N (stereo not shown),-2.38%
13,O=C(Oc1ccc2cccc(OC(=O)N3CCOCC3)c2c1)N1CCOCC1,16.7%
14,COc1coc(C(O)C[N+](=O)[O-])cc1=O (stereo not shown),-4.85%
15,CCN1CCN(C(=O)C2(NC(=O)Nc3cccc(F)c3)CCCCC2)CC1,4.94%
16,COc1cccc(C(=O)Nc2cc(C(F)(F)F)ccc2Cl)c1,4.29%
17,CCCCCCCN1C(Nc2ccccc2)=NC[C@@H]1C,-68%
18,COc1cccc(Cn2c(NCc3cccnc3)nc3c2c(=O)n(C)c(=O)n3C)c1,-25%
19,CC(C(=O)Nc1ccccn1)(c1ccccc1)c1ccccc1.Cl,0.974%
20,COc1ccc(/C(N)=N/OC(=O)CCC2CCCC2)cc1OC,1.46%
21,CC(=O)NCCNC(=O)c1cccc(NS(=O)(=O)c2ccc3c(c2)OCCO3)c1,-2.65%
22,CCc1cc2ccc(C)c(C)c2nc1SCC(=O)NNC(=O)c1ccco1,11.8%

row,SMILES,"hERG current change (%, negative = inhibition) at 10uM"
1,COc1ccc(/C=C2\Sc3ccc(C(=O)NCC4CCCO4)cc3N(C)C2=O)cc1 (stereo not shown),2.24%
2,CC(C)CC(=O)Nc1nnn(C)n1,-1.5%
3,CCN(CC)CCCNC(=O)c1cc(-c2ccccc2)c(N2CCCCC2)s1,-51.7%
4,COc1ccc(C(CC(=O)Nc2cc(OC)cc(OC)c2)n2cccc2)cc1 (stereo not shown),2.58%
5,COc1ccc(Cl)cc1NC(=O)C/C(C)=N/NC(=O)c1ccccc1Cl,19.6%
6,O=C(O)c1ccc(NC(=S)NCc2ccccc2)cc1,13.5%
7,Cc1nn(Cc2cccc(F)c2)c(C)c1NC(=O)c1c([N+](=O)[O-])c(C)nn1C,-9.72%
8,Cc1sc(NC(=O)CSc2nc(O)cc(=O)[nH]2)nc1-c1ccccc1,9.36%
9,O=C1NC(NS(=O)(=O)c2ccccc2)(C(F)(F)F)C(=O)N1Cc1cccnc1 (stereo not shown),2.31%
10,Cc1ccc(S(=O)(=O)NCc2cccnc2)s1,1.72%
11,O=C(Nc1ccc(Cl)cc1Cl)c1n[nH]c(Cn2cncn2)n1,1.48%
12,CCCCCN=Cc1c(C)[nH]n(-c2nc3ccccc3s2)c1=O,-65.5%
13,Cc1ccccc1-n1ncc2c(SCC(=O)N3c4ccccc4CC3C)ncnc21 (stereo not shown),-1.9%
14,Cc1nc2nc3c(c(=O)n2[nH]1)CCCC3,1.21%
15,O=C(NCCc1c[nH]c2ccc(Cl)cc12)c1ccc([N+](=O)[O-])cc1,6.57%
16,O=C(CCN1C(=O)c2ccccc2C1=O)Nc1ccc2c(c1)OCCO2,4.36%
17,COC(=O)Cc1[nH]nc2c1C1(C(=O)N(Cc3ccccc3)c3ccccc31)C(C#N)=C(N)O2 (stereo not shown),-16.6%
18,Cc1ccc(P(=O)(CO)c2ccc(C)cc2)cc1,-0.463%
19,COc1cccc2c3c(c(=O)[nH]c12)CC(C)(C)O3,4.46%
20,CN(CC(=O)Nc1ccc(F)cc1)C(=O)COC(=O)CNC(=O)c1sc2ccccc2c1Cl,15.5%
21,Fc1ccccc1/C=C1\CCCC2=C1Nc1ncnn1C2c1ccccc1F (stereo not shown),-25.7%
22,COc1ccc2oc(C(=O)c3ccccc3)c(NC(=O)CN3CCN(C)CC3)c2c1,-59.8%
